In PubChem BioAssay AID894 (National Center for Advancing Translational Sciences (NCATS), 2007):
Values joined by “and” are separate entries in the source; they are usually repeats but may differ in a detail not shown here. Equal values may be shown once. Hit rate of the full screen: of about 150,000 compounds, about 6,500 (4.3%) were called active. The shares of active, inactive and inconclusive entries below differ from those in the screen. Calls come from the whole dose curve; as a rule, active = well fitted inhibition curve with a large enough effect (not every such curve was filed as active); inconclusive = small, poorly fitted or top-dose-only effect, or another doubt; inactive = no such curve, though single readings can be large or run the other way. No potency is given beside an inconclusive call; the fits are too rough. Some compounds were tested as several samples or in several runs, with calls that do not always agree.

Each compound was assayed against 15-hydroxyprostaglandin dehydrogenase [NAD(+)] (Homo sapiens) (UniProt P15428) (assay: qHTS Assay for Inhibitors of HPGD (15-Hydroxyprostaglandin Dehydrogenase)). Settings: purified HPGD, NADH fluorescence kinetic, PGE2 substrate; activity change, negative = inhibition: active compounds read low.
UniProt P15428, sequence (P15428 whole entry, looked up): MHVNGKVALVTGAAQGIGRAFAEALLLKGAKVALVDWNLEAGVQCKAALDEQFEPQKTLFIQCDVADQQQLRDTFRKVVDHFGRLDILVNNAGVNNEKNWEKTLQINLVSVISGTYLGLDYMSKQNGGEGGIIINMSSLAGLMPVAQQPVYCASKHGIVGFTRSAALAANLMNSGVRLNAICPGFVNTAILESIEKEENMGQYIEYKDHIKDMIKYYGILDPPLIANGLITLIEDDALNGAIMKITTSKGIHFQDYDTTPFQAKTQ
Procedure, shortened: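 NADH formation kinetics: reaction with 30 uM PGE2 and 1 mM NAD+ (final), 20 nM enzyme, Tris-HCl pH 8 with Tween 20, after 15 min compound preincubation at room temperature. Fluorescence change, last versus first of five reads.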
% is set by controls: 0 for no effect and ±100 for the full control effect; potency is the fitted concentration of half-maximal effect; tags give direction and shape of the fitted curve.

Row | Structure (SMILES) | Potency | activity change, negative = inhibition
1 | COc1ccc(C2C=C(c3ccccc3)Nc3nc(CCCO)nn32)cc1 (stereo not drawn) | inconclusive [inhibitor, partial curve] | –
2 | CCOc1ccc(C(=O)N/N=C/c2ccc(-c3ccc(S(=O)(=O)Nc4ncccn4)cc3)o2)cc1 | inconclusive [inhibitor, partial curve] | –
3 | O=C(O)CP(=O)(O)O | active: 31.6 µM | –
4 | CCOC(=O)c1cc(CC)sc1NC(=O)COc1ccc2c(C)cc(=O)oc2c1 | inconclusive [inhibitor, single point] | –
5 | O=[N+]([O-])c1c(NCCO)cc(Sc2nc3ccccc3s2)c2nonc12 | active: 11.2 µM | –
6 | CCCN1C(=O)/C(=N\OCC(=O)NC23CC4CC(CC(C4)C2)C3)c2ccccc21 | active: 15.8 µM | –
7 | CCN(C(=O)c1coc(=O)c(Br)c1)c1ccc2c(c1)OCO2 | inconclusive [inhibitor, partial curve] | –
8 | CCOc1ccc(C(C)NC(=O)C2CCC2)cc1 (stereo not drawn) | active: 25.1 µM | –
9 | Cc1ccnc(NC(=O)/C=C/c2ccccc2Cl)c1 | inconclusive [inhibitor, partial curve] | –
10 | Cc1nnc(Sc2cc(C(=O)NCc3ccco3)c3ccccc3n2)s1 | active: 2.24 µM | –
11 | CCOc1ccc(-n2nc3c(Cl)nnc(C)c3c2C)cc1 | inconclusive [inhibitor, single point] | –
12 | CCCCC1OC2(C)OC(=N)C1(C#N)C(C#N)(C#N)C2c1ccccc1 (stereo not drawn) | inconclusive [inhibitor, partial curve] | –
13 | S=c1[nH]ncn1/N=C/c1ccc(N2CCOCC2)cc1 | inconclusive [inhibitor, single point] | –
14 | O=c1oc2cc(O)ccc2cc1-c1nc2c(s1)CCc1ccccc1-2 | inconclusive [inhibitor, partial curve] | –
15 | CCN(CC)C(=O)c1sc2nc(-c3ccc(OC)cc3)cn2c1C | active: 14.1 µM | –
16 | Cc1ccc2sc3ccc(NC(=O)c4ccccc4Cl)cc3c(=O)c2c1 | inconclusive [inhibitor, partial curve] | –
17 | COc1cc(NC(=O)c2cc3nc(C)cc(C)n3n2)c(OC)cc1Cl | inconclusive [inhibitor, partial curve] | –
18 | Cc1ccc(C)c2c1cc(C)c1nnc(SCC(=O)c3cccs3)n12 | inconclusive [inhibitor, single point] | –
19 | CN(c1ccccc1)c1ccc(/C=N/NC(=O)CC#N)cc1 | inconclusive [inhibitor, partial curve] | –
20 | COc1ccc(CNC(=O)c2ccc(Br)o2)cc1 | active: 20 µM and active: 25.1 µM | –
21 | CC(=O)Nc1ccc(C(=O)CCl)cc1 | – | inactive: -12%
22 | Cc1ccc(C)n1N1C(=O)/C(=C\c2ccc(Cl)cc2)SC1=S | – | inactive: -15.6%
23 | Cc1cccc(Nc2nnc(-c3ccc(C(=O)N4C[C@H]5C[C@H](C4)c4cccc(=O)n4C5)cc3)c3ccccc23)c1 | inconclusive [inhibitor, partial curve] | –
24 | CC1CC(C)CN(C(=O)COC(=O)CNS(=O)(=O)/C=C/c2ccccc2)C1 (stereo not drawn) | – | inactive: -13.9%
25 | CCCn1cc(SCC(=O)NCC2CCCO2)c2ccccc21 (stereo not drawn) | inconclusive [inhibitor, single point] | –

Row | Structure (SMILES) | Potency | activity change, negative = inhibition
26 | COc1ccc(CCN2CC34C=CC(O3)C(C(=O)NCc3ccccc3)C4C2=O)cc1OC (stereo not drawn) | active: 10 µM | –
27 | CCCC1(c2ccccc2)NC(=O)N(CC(=O)Nc2sc(-c3ccccc3)cc2C(=O)OCC)C1=O (stereo not drawn) | inconclusive [inhibitor, partial curve] | –
28 | O=C(Nc1ccc(-n2nncc2-c2ccco2)cc1)c1cccc(F)c1 | active: 12.6 µM | –
29 | CCc1ccc(OCC(=O)NCCN(C)C)c(Br)c1 | – | inactive: -23.4%
30 | Cc1ccsc1/C=N/n1c(-c2cccnc2)n[nH]c1=S | inconclusive [inhibitor, single point] | –
31 | O=C(NCc1ccc(Cl)cc1)C1CCN(S(=O)(=O)c2cc([N+](=O)[O-])ccc2Cl)CC1 | – | inactive: -5.32%
32 | COC(=O)c1[nH]c2cccc(OC)c2c1NC(=O)CCN1CCN(c2ccccc2F)CC1 | inconclusive [inhibitor, partial curve] | –
33 | O=C(Nc1ccc(OC(=O)c2ccco2)cc1)c1ccco1 | – | inactive: -23.3%
34 | Cc1ccc(C)c(N2CCN(c3ncnc4c3cnn4-c3ccccc3)CC2)c1 | inconclusive [inhibitor, partial curve] | –
35 | CSc1nnc(-c2ccc(S(=O)(=O)N3CCOCC3)cc2)n1CC1CCCO1 (stereo not drawn) | inconclusive [inhibitor, partial curve] | –
36 | COc1ccc(NC(=O)Nc2ccc(C(=O)N3CCOCC3)cc2)cc1 | inconclusive [inhibitor, single point] | –
37 | COc1ccc(NC(=O)CCOc2ccccc2)c(OC)c1 | inconclusive [inhibitor, partial curve] | –
38 | COc1ccc(O)c(/C=c2/sc3nc4cc(C)c(C)cc4n3c2=O)c1 | active: 7.94 µM | –
39 | C=CCN1C(=O)C(O)(CC(=O)c2ccc(Cl)cc2)c2ccccc21 (stereo not drawn) | inconclusive [inhibitor, partial curve] | –
40 | O=C1c2sc3nc4ccccc4n3c2C(=O)N1c1ccccc1Cl | active: 14.1 µM | –
41 | O=C(Nc1ccc(S(=O)(=O)NCCc2ccccc2)cc1)c1ccc(Br)o1 | – | inactive: -13.3%
42 | c1ccc(CC2CCN(c3nc4ccccc4n4cnnc34)CC2)cc1 | inconclusive [inhibitor, partial curve] | –
43 | CC1CCCC(C)N1C(=O)CSc1nnc(-c2c[nH]c3ccccc23)o1 (stereo not drawn) | – | inactive: -22.5%
44 | CCOC(=O)c1c(C)n(C)c2ccc(O)c(CN3CCC(C)CC3)c12 | – | inactive: 1.69%
45 | Cc1ccc(CNc2ccc3c(c2)OCO3)cc1 | inconclusive [inhibitor, partial curve] | –
46 | CCOc1nc(NC2CCCCC2)nc(NC(C)(C)C)n1 | – | inactive: 0.89%
47 | COc1ccc(OC)c(Nc2nc(-c3cccs3)cs2)c1 | – | inactive: -22.8%
48 | O=C(O)CC1S/C(=N/N=C/c2ccc(-c3ccccc3[N+](=O)[O-])o2)NC1=O (stereo not drawn) | active: 15.8 µM | –
49 | Cc1ccc2nc(/C(C#N)=C/c3ccc(-c4cccc([N+](=O)[O-])c4)o3)[nH]c2c1 | active: 25.1 µM | –
50 | CC(C)(CC(=O)N1CCN(c2ccc(Cl)cc2)CC1)CC1=NS(=O)(=O)c2ccccc2N1 | – | inactive: -4.67%

Row | Structure (SMILES) | Potency | activity change, negative = inhibition
51 | O=C1c2cccc3cccc(c23)C(=O)N1CC1CCN(S(=O)(=O)c2ccc(F)cc2)CC1 | inconclusive [inhibitor, partial curve] | –
52 | N#Cc1ccc(/C=N/NC(=O)c2cc(-c3cccs3)nc3ccccc23)cc1 | inconclusive [inhibitor, single point] | –
53 | CC1CCCN(C(=O)CSc2nnc(-c3cccnc3)n2C2CCCCC2)C1 (stereo not drawn) | inconclusive [inhibitor, partial curve] | –
54 | N#Cc1nc(COc2ccccc2Cl)oc1NCc1ccco1 | inconclusive [inhibitor, single point] | –
55 | O=C(CCn1cccc1)NCc1ccc2c(c1)OCO2 | active: 20 µM | –
56 | O=C(c1cc(Cl)ccc1[N+](=O)[O-])N1CCc2ccccc2C1 | – | inactive: -8.33%
57 | Nc1ccc(O)cc1C(=O)OCC(=O)C12CC3CC(CC(C3)C1)C2 | inconclusive [inhibitor, partial curve] | –
58 | O=[N+]([O-])c1ccc(Cl)c(/C=N/N2CCN(C3c4ccccc4-c4ccccc43)CC2)c1 | – | inactive: 0.745%
59 | CCN1CCN(CCNC(=O)CSCc2nc(-c3ccc(OC)c(OC)c3)oc2C)CC1 | inconclusive [inhibitor, partial curve] | –
60 | CC(=O)c1ccc2c(c1)CC(C)C(=O)N2C (stereo not drawn) | inconclusive [inhibitor, single point] | –
61 | Cc1ccc(C(=O)N2CCSCC2)cc1 | active: 0.282 µM | –
62 | COc1ccc(N=C2C(=O)Nc3c(C)cccc32)cc1 | – | inactive: -0.113%
63 | O=C(Nc1ccc(N2C(=O)C3C4C=CC(C4)C3C2=O)cc1)Nc1cccnc1 (stereo not drawn) | active: 17.8 µM | –
64 | Cc1cc2nc(C)c(Cc3ccccc3)c(=O)n2[nH]1 | inconclusive [inhibitor, single point] | –
65 | Cc1cc(OCC(=O)N2CCCCCC2)ccc1[N+](=O)[O-] | – | inactive: -6.08%
66 | O=C(CC1NCCNC1=O)Nc1ccc2c(c1)OCO2 (stereo not drawn) | – | inactive: -8.36%
67 | C=CCNc1sc(C(=O)c2ccc(C)cc2)c(N)c1C#N | – | inactive: 8.66%
68 | CCCOc1ccc(-c2nc(C#N)c(N3CCN(CC)CC3)o2)cc1 | inconclusive [inhibitor, partial curve] | –
69 | O=C1CC(N2CCC(O)(c3ccc(Cl)cc3)CC2)C(=O)N1 (stereo not drawn) | – | inactive: -15.3%
70 | O=C(CSc1nc(-c2ccc(F)cc2)cs1)N1CCOCC1 | – | inactive: -20.2%
71 | O=C(Nc1ccc(NC(=O)c2sc3ccccc3c2Cl)cc1Cl)c1ccco1 | inconclusive [inhibitor, partial curve, poor fit] | –
72 | COc1ccc(/C=N/NC(=O)c2ccncc2)cc1CSc1nc2ccccc2s1 | inconclusive [inhibitor, partial curve] | –
73 | O=C(NCCc1ccccc1)C1CCC(Cn2c(=O)c3ccccc3n(Cc3cccnc3)c2=O)CC1 (stereo not drawn) | inconclusive [inhibitor, partial curve] | –
